The source gives no read counts; variants with many changes may rest on few reads.
B1: CPEB3 Ribozyme (parent)
chain: UAACAGGGGGCCACAGCAGAAGCGUUCACGUCGCAGCCCCUGUCAGAUUCUGGUGAAUCUGCGAAUUCUGCUGUAUAUCUC

Variants of: B1
Test: self-cleavage, relative activity (ratio to wild type); higher = more cleavage; in vitro, sequencing
In short: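 Relative activity was defined as the cleaved/total read fraction for a variant divided by the same fraction for the unmutated ribozyme. CPEB3 self-cleaving ribozyme libraries were made by rounds of error-prone PCR, barcoded, and transcribed in vitro with T7 RNA polymerase for 5 hours at 37°C, and cleavage ran through transcription plus a 15 min DNase I step before EDTA. Illumina sequencing of template-switched reverse transcripts gave the reads, and DNA sequencing mapped the barcodes. Averages come from three batches, using variants with at least 5 reads.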

| Variant | self-cleavage |
| --- | --- |
| UAACAGGGGGCCACAGCAGAAGCGAUCACGUCGCCGCCCCCGUCAGAUUCUGGUGAAUCAGCGAAUUCUGCCGUAUAUCUC [U25A A35C U41C U60A U72C] | 0.12 |
| UAACAGGGGGCCACAGCAGAAGCGAUCACGUCGCUGCCCCUGUCAGAAUCUGGUGAAUCUGCGAAUUCUGCCGUAAAUCUC [U25A A35U U48A U72C U76A] | 0.05 |
| UAACAGGGGGCCACAGCAGAAGCGAUCACGUCGCUGCCCCUAUCAGAUUCUGGUGAAUCUGCGAAUUCUGCUGUAUAUCUC [U25A A35U G42A] | 0.21 |
| UAACAGGGGGCCACAGCAGAAGCGAUCACGUCGCAGCCCCUGUCAGAUUCUGGUGAAUCUGCGAAUUCUGCUGUUUACCUC [U25A A75U U78C] | 0.23 |
| UAACAGGGGGCCACAGCAGAAGCGAUCGCGUCGCAGCCCCUGUCAGAUUCUGGUGAAUCUGCGAAUUCUGCAGUAUAUCUC [U25A A28G U72A] | 0.08 |
| UAACAGGGGGCCACAGCAGAAGCGAUCACGUCGCAGCCCCUGUCAGAUUGUGGUGUAUCUGCGGACUCUGCUGUAUAUCUC [U25A C50G A56U A64G U66C] | 0.08 |
| UAACAGGGGGCCACAGCAGAAGCGAUCACGUCGCUGCCCCUGUCAGAUUCUGGUGAAUCUGCGAACUCUGCCAUAUAUCUC [U25A A35U U66C U72C G73A] | 0.09 |
| UAACAGGGGGCCACAGCAGAAGCGAUCACGUCGCAGCCCCUGUCAGAUUCUGGUGAAUCUGUGAAUUCCGCUGUAUAUCUC [U25A C62U U69C] | 0.15 |
| UAACAGGGGGCCACAGCAGAAGCGAUCACAUCGCAGCCCCUGUCAGAUUCUGGUGUAUCCGCGAAUCCUGCUGUAUAACUC [U25A G30A A56U U60C U67C U78A] | 0.1 |
| UAACAGGGGGCCACAGCAGAAGCGAUCACGUCGCGGCCCCUGUCAGACUCUGGUGAAUCUGCGAAUUCUGCUGUAUAUCUC [U25A A35G U48C] | 0.39 |
| UAACAGGGGGCCACAGCAGAAGCGAUCACGUCGUAGCCACUGUCAGAUUCUGGUGAAUCUGCGAGUUCUGCUGUAUAUCCC [U25A C34U C39A A65G U80C] | 0.13 |
| UAACAGGGGGCCACAGCAGAAGCGAUCACGUCGCAGCCCCUGUCUGAUUCUGGUGAACCUGCGAAUUCCGCUGUAUAUCUC [U25A A45U U58C U69C] | 0.11 |
| UAACAGGGGGCCACAGCAGAAGCGAUCACGUCGCAGCCCCUGUCGGAUUCUGGUGAAUCUACGAAUACUGCUGUAUAUCUC [U25A A45G G61A U67A] | 0.13 |
| UAACAGGGGGCCACAGCAGAAGCGAUCACGUCGCUGCCCCUGUCAGAUUCUGGUGAAUCUGCGAAUCCUGCUGAAUACCUC [U25A A35U U67C U74A U78C] | 0.09 |
| UAACAGGGGGCCACAGCAGAAGCGAUCACGUCGCAGCCCCUGUCGGAUUCUGGUGAAUCCGCGAAUUCUGCUGUAUAUCCC [U25A A45G U60C U80C] | 0.32 |
| UAACAGGGGGCCACAGCAGAAGCGAUCAAGUCGCAGCCCCUGUCAGAUUCUGGUGAAUCUGCGAUUUCUGCUGUAUAUCUC [U25A C29A A65U] | 0.15 |
| UAACAGGGGGCCACAGCAGAAGCGAUCACGUCGCAGCCCCUGUCAGAUUCUGGUGAAUCUGCGAGUUCUGCUGUAUAACUC [U25A A65G U78A] | 0 |

| Variant | self-cleavage |
| --- | --- |
| UAACAGGGGGCCACAGCAGAAGCGAUCACGUCGCAGCCCCUGUCAGAUUCUGGUGAGUCUGCGAAUUCCGCUGUAUAUCUC [U25A A57G U69C] | 0.12 |
| UAACAGGGGGCCACAGCAGAAGCGAUCACGUCGCAGCCCCUGUCAGAUUCUGGUGAAUCUGCGAAUUGCGCUGUACAUCAC [U25A C68G U69C U76C U80A] | 0.11 |
| UAACAGGGGGCCACAGCAGAAGCGAUCACGUCGCUGCCCCUGUCAGACUCUGGUGAAUCUGCGAAUUCUGCUGUAUAUCUC [U25A A35U U48C] | 0.38 |
| UAACAGGGGGCCACAGCAGAAGCGAUCACGUCGCUGCCCCUGUCGGAUUCUGGUGAAUCUGCGGAUUCUGCUGUAUACCUC [U25A A35U A45G A64G U78C] | 0.13 |
| UAACAGGGGGCCACAGCAGAAGCGAUCUCGUCGCAGCCCCAGUCAGAAUCUGGUGAAUCUGCGAAUUCUGCUGUAUAUCUC [U25A A28U U41A U48A] | 0.13 |
| UAACAGGGGGCCACAGCAGAAGCGAUCACCUCGCAGCCCCCGUCAGUUUCUGGUGAAUCUGCGAAUACUGCUGUAUAUCUC [U25A G30C U41C A47U U67A] | 0.05 |
| UAACAGGGGGCCACAGCAGAAGCGAUCACGUCGCGGCCCCUGUCUGAUUCUGGUGAAUCUGCGAAUUCUGCUGUAUAUCUC [U25A A35G A45U] | 0.21 |
| UAACAGGGGGCCACAGCAGAAGCGAUCACGUCGCAGCCCCUGUCAGGUUCUGGCGAAUCUGCGAAUUCUGCUGUAUGUCUC [U25A A47G U54C A77G] | 0.1 |
| UAACAGGGGGCCACAGCAGAAGCGAUCACGUCGCAGCCCCUGUCAGAUUCUGGUGAAUCUGCGAAUUCUGCUGUGCAUCUC [U25A A75G U76C] | 0.6 |
| UAACAGGGGGCCACAGCAGAAGCGAUCACGUCGCAGCCCCUGUCGGAUUCUGGUGAAACUGCGAAUUCUGCUGUAUAUCUC [U25A A45G U58A] | 0.17 |
| UAACAGGGGGCCACAGCAGAAGCGAUUACGUCGCAGCCCCUGUCAGAUUCUGGUGAAUCUGCGAUUUCUGCUGUAUAUCUC [U25A C27U A65U] | 0.1 |
| UAACAGGGGGCCACAGCAGAAGCGAUCACGUCGCAGCUCCUGUCAGAUUCUGGUGAAUCUGCGAAUUCUGCUGUACAUCUC [U25A C38U U76C] | 0.12 |
| UAACAGGGGGCCACAGCAGAAGCGAUCACGUCGCAGCCCCUGUCUGAUUCCGGUGAAUCUGCGAAUUCUGCUGUAUAUCUC [U25A A45U U51C] | 0.06 |
| UAACAGGGGGCCACAGCAGAAGCGAUCACGUCGCAGCCCAUGUCGGAUUCUGGUGAAUCUGCGAAUUCUGCCGUAUAUCUC [U25A C40A A45G U72C] | 0.09 |
| UAACAGGGGGCCACAGCAGAAGCGAUCACCUCGCAGCCCCCGUCAGAUUCUGGUGAAUCUGCGAAUUCUGCUGUAUACCUC [U25A G30C U41C U78C] | 0.17 |
| UAACAGGGGGCCACAGCAGAAGCGAUCACGUCGCUGCCCAUGUCAGAAUCUGGUGAAUCUGCGAAUUCUGCUGUAUAUCUC [U25A A35U C40A U48A] | 0.12 |
| UAACAGGGGGCCACAGCAGAAGCGAUCAUGUCGCGGCCCCCGUCAGAUUCUGGUGAAUCUGCGAAUUCUGCUGUAUAUCAC [U25A C29U A35G U41C U80A] | 0.04 |

Reference: the RNAGym collection of RNA variant scans (doi:10.1093/nar/gkz1192)
